Laboratory results as given in PubChem BioAssay AID1460 (National Center for Advancing Translational Sciences (NCATS), 2008).
Among all 270,000 compounds or so, about 5,800 (2.1%) were called active. The inconclusive results got no clear call from the source; some entries with a clear call stand among them for comparison. Calls follow the shape of the dose curve; as a rule, active = well fitted inhibition curve with a large enough effect; inconclusive = small, poorly fitted or top-dose-only effect; inactive = flat fitted curve, though single readings scatter. Where the call is inconclusive, the potency comes from a doubtful curve fit.

The compounds below were run against Microtubule-associated protein tau (Homo sapiens) (UniProt P10636) (assay: qHTS for Inhibitors of Tau Fibril Formation, Thioflavin T Binding). Details: recombinant tau K18 P301L (four-repeat tau fragment), heparin-induced fibrillization, ThT fluorescence; series mostly up to 57.4 µM; activity, negative = inhibition: at the top concentration.
Method in brief: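 Tau K18 P301L fragment (15 uM unlabeled plus 0.24 uM Alexa 594-labeled) in 100 mM sodium acetate pH 7 with compound, fibrillization induced by 20 uM heparin for 6 hr at 37 C. Thioflavin T (30 uM) added, fluorescence read after 1 hr (ex 450, em 510 nm).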
% is scaled to controls: 0 for no effect and ±100 for the full control effect; potency is read from the fitted curve at half-maximal effect; tags tell the direction and shape of the fitted curve.
Also: nearly all actives have a fitted effect of over 55% in size.

UniProt P10636, sequence (P10636 whole entry, looked up, the tested form may be a part): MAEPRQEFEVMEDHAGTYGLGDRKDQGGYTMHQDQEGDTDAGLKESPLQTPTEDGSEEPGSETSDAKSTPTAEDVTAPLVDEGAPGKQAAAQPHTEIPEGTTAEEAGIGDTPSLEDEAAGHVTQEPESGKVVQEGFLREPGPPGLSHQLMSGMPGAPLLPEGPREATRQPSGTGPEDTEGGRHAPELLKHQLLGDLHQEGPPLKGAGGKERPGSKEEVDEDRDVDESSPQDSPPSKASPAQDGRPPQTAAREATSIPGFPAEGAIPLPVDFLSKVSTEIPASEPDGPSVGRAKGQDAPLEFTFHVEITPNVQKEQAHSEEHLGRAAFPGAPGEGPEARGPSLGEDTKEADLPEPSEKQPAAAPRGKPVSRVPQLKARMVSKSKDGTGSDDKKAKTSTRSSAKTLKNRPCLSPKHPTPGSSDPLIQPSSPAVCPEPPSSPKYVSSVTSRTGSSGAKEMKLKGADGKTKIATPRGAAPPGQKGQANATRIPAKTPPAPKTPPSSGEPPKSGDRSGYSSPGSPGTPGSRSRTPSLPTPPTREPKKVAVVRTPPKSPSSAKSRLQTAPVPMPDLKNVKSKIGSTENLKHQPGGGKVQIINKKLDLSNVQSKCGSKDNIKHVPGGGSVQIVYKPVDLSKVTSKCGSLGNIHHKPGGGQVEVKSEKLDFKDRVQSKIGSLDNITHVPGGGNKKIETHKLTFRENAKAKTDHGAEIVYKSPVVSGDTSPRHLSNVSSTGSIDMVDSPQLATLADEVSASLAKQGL

**Q.** How did the “activity, negative = inhibition” value turn out when `COc1ccc(NS(=O)(=O)c2ccc(N3CCCC3=O)cc2)cn1` was run?
**A.** inactive: -3.65%

**Q.** How did the Potency turn out when `Cc1cc(=O)n(Cc2ccccc2)c2c1c(C)nn2C` was run?
**A.** inconclusive: 39.8 µM [inhibitor, single point]

**Q.** With `Cc1ccccc1-n1c(SC/C(O)=C(\C#N)c2nc3ccccc3[nH]2)nnc1-c1ccncc1` as the compound, how does the Potency read?
**A.** inconclusive: 28.2 µM [inhibitor, single point]

**Q.** For `CCOC(=O)/C=C(\C)Sc1cc(O)c2ccccc2c1O`, which Potency is on record?
**A.** active: 1.78 µM

**Q.** How did the “activity, negative = inhibition” value turn out when `Clc1ccc(-c2nnc3sc(Cc4cccs4)nn23)cc1` was run?
**A.** inactive: -17.2%

**Q.** Which Potency does the source give for `O=C(CN1CCc2ccccc2C1)Nc1ccccc1N1CCCCCC1` here?
**A.** inconclusive: 20 µM [inhibitor, partial curve]

**Q.** With `COc1ccc(C)cc1NC(=O)CC1NCCNC1=O` (stereo unspecified) as the compound, how does the “activity, negative = inhibition” value read?
**A.** inactive: 2.76%

**Q.** How did the Potency turn out when `C/C(=N/Nc1ccc(Cl)cc1)c1cnnc(-c2ccccc2)n1` was run?
**A.** inconclusive: 2.82 µM [inhibitor, full curve]

**Q.** With `CCN(CC)c1ccc(/C=N/NC(=O)c2ccc(O)cc2)cc1` as the compound, how does the Potency read?
**A.** active: 3.16 µM

**Q.** How did the Potency turn out when `CCOC(=O)c1c(N)sn(-c2ccccc2C)c1=S` was run?
**A.** inconclusive: 28.2 µM [inhibitor, single point]

**Q.** How did the Potency turn out when `COc1ccc(/C=C2\SC(=S)NC2=O)cc1OS(=O)(=O)c1ccc(NC(C)=O)cc1` was run?
**A.** active: 12.6 µM

**Q.** For `Cc1ccc(OCC(=O)N/N=C/c2cn(Cc3ccccc3)c3ccccc23)cc1`, which Potency is on record?
**A.** inconclusive: 28.2 µM [inhibitor, single point]

**Q.** How did the “activity, negative = inhibition” value turn out when `CN(C)S(=O)(=O)n1ccnc1` was run?
**A.** inactive: -10.4%

**Q.** Which Potency does the source give for `Cc1cc2nc(-c3ccc(NC(=O)c4ccccc4F)cc3)oc2cc1C` here?
**A.** inconclusive: 0.199 µM [inhibitor, full curve, poor fit]

**Q.** With `CC(=O)c1ccc(NC(=O)CSCC(=O)Nc2ccc3ccccc3c2)cc1` as the compound, how does the Potency read?
**A.** inconclusive: 7.08 µM [inhibitor, partial curve]

**Q.** `CN(C)/C=N/c1sc2c(c1C#N)CCC2` was tested. Which Potency did it give?
**A.** inconclusive: 20 µM [inhibitor, single point]

**Q.** Which Potency does the source give for `O=C1NC(c2ccc(Br)cc2)Nc2sc3c(c21)CCC3` (stereo unspecified) here?
**A.** inconclusive: 1.12 µM [inhibitor, full curve]

**Q.** `COC(=O)C1CCN(Cc2ccc(C)cc2)CC1` was tested. Which “activity, negative = inhibition” value did it give?
**A.** inactive: -5.58%

**Q.** `O=C(Oc1c(Cl)cc(Cl)c2ccccc12)N1CCCC1` was tested. Which Potency did it give?
**A.** inconclusive: 39.8 µM [inhibitor, single point]

**Q.** With `Cc1nn(-c2ccccc2)c(Cl)c1/C=N/Nc1ccc(Cl)c(C(=O)O)c1` as the compound, how does the Potency read?
**A.** inconclusive: 10 µM [inhibitor, partial curve]

**Q.** How did the Potency turn out when `CCOC(=O)N1CCN(C(=O)CSc2nnc(COc3ccccc3)o2)CC1` was run?
**A.** inconclusive: 3.98 µM [inhibitor, full curve]

**Q.** Which “activity, negative = inhibition” value does the source give for `CC1=CC2=NC(=O)CC(C)(C(=O)N(CC(=O)NC3CCCC3)c3cc(C)cc(C)c3)N2C=C1` (stereo unspecified) here?
**A.** inactive: 5.1%

**Q.** `Cc1ccc(C)c(Cn2c(C(=O)O)c(CNCc3cccs3)c3ccccc32)c1` was tested. Which Potency did it give?
**A.** inconclusive: 25.1 µM [inhibitor, single point]

**Q.** For `CN1/C(=C\C(=S)NC(=O)c2ccc([N+](=O)[O-])cc2)C(C)(C)c2ccccc21`, which Potency is on record?
**A.** inconclusive: 5.62 µM [inhibitor, partial curve]

**Q.** `Cc1cccc(NC(=O)CSc2nnc(-c3ccco3)c(-c3ccco3)n2)c1C` was tested. Which Potency did it give?
**A.** active: 7.94 µM

**Q.** `CCOc1ccc(NC2=C(Cl)C(=O)N(C3CCCCC3)C2=O)cc1` was tested. Which “activity, negative = inhibition” value did it give?
**A.** inactive: -16%

**Q.** How did the Potency turn out when `CCN(CC)C1CC(=O)N(c2cccc(C)c2)C1=O` (stereo unspecified) was run?
**A.** inconclusive: 15.8 µM [inhibitor, partial curve]

**Q.** For `CCCn1c(=O)c(C(=O)NNS(=O)(=O)c2ccc(Cl)cc2)c(O)c2ccccc21`, which “activity, negative = inhibition” value is on record?
**A.** inactive: -16.7%

**Q.** Which “activity, negative = inhibition” value does the source give for `COc1ccc(Cl)cc1NC(=O)Cn1c(=O)c(-c2ccccc2NC(C)=O)nc2ccccc21` here?
**A.** inactive: 4.08%

**Q.** `O=C(Nc1cccc(Cl)c1)N(CCCN1CCOCC1)Cc1ccccc1F` was tested. Which “activity, negative = inhibition” value did it give?
**A.** inactive: 7.42%

**Q.** Which Potency does the source give for `O=C(O)CC(CCc1ccccc1)OC1OC(CO)C(O)C(O)C1O` (stereo unspecified) here?
**A.** inconclusive: 28.2 µM [inhibitor, single point]

**Q.** Which “activity, negative = inhibition” value does the source give for `COc1ccc(NC2c3ccccc3C(=O)N2Cc2ccco2)cc1OC` (stereo unspecified) here?
**A.** inactive: -9.45%

**Q.** Which Potency does the source give for `CC1(C)CC(=O)C(C(C2=C(O)CC(C)(C)CC2=O)c2cccnc2)C(=O)C1` (stereo unspecified) here?
**A.** inconclusive: 0.126 µM [inhibitor, full curve, poor fit]

**Q.** With `Cc1cccc2cc(CN(CCCO)C(=O)Nc3cccc(Cl)c3)c(=O)[nH]c12` as the compound, how does the Potency read?
**A.** inconclusive: 14.1 µM [inhibitor, partial curve]

**Q.** `Cc1cccc(C(=O)Nc2ccc3nc(SCCOc4ccccc4)sc3c2)c1` was tested. Which Potency did it give?
**A.** inconclusive: 1.78 µM [inhibitor, full curve]

**Q.** With `Cc1nn(-c2ccccc2)c2c1C(c1ccc(Br)s1)C(C#N)=C(N)O2` (stereo unspecified) as the compound, how does the Potency read?
**A.** inconclusive: 14.1 µM [inhibitor, partial curve]

**Q.** Which Potency does the source give for `O=C(Cn1nc(-c2ccc(N3CCOCC3)c([N+](=O)[O-])c2)c2ccccc2c1=O)N1CCCCC1` here?
**A.** inconclusive: 22.4 µM [inhibitor, partial curve, poor fit]

**Q.** Which Potency does the source give for `CC(C)c1onc(C(=O)Nc2sc3c(c2C#N)CCC3)c1[N+](=O)[O-]` here?
**A.** inconclusive: 22.4 µM [inhibitor, single point]

**Q.** How did the Potency turn out when `Cn1c(SCc2nc(-c3ccc(Br)cc3)no2)nnc1-c1ccco1` was run?
**A.** inconclusive: 15.8 µM [inhibitor, partial curve]

**Q.** For `Cc1cc(C)c(NC(=O)CSc2nncn3c2cc2oc(C)cc23)c(C)c1`, which Potency is on record?
**A.** inconclusive: 8.91 µM [inhibitor, partial curve]

**Q.** `Cc1cc(C)c(C2C3=C(Nc4c2c(C)nn4-c2ccccn2)c2ccccc2C3=O)c(C)c1` (stereo unspecified) was tested. Which Potency did it give?
**A.** inconclusive: 10 µM [inhibitor, partial curve]

**Q.** Which Potency does the source give for `Cc1cc(C(=O)N/N=C/c2ccc(-c3ccccc3Cl)o2)n[nH]1` here?
**A.** inconclusive: 3.98 µM [inhibitor, full curve]

**Q.** How did the Potency turn out when `Cc1cc(Cl)ccc1OCC(=O)N1CCC(c2nc3ccccc3s2)CC1` was run?
**A.** inconclusive: 39.8 µM [inhibitor, single point]

**Q.** How did the Potency turn out when `O=C1NC(=O)/C(=C\c2ccccc2OCc2ccc([N+](=O)[O-])cc2)N1` was run?
**A.** inconclusive: 39.8 µM [inhibitor, single point]

**Q.** Which Potency does the source give for `CCCCCOc1ccc(CSC(=N)N)cc1[N+](=O)[O-]` here?
**A.** inconclusive: 11.2 µM [inhibitor, partial curve]

**Q.** `Cc1ccc(NC(=O)CC2Sc3ccc(C(F)(F)F)cc3NC2=O)cc1` (stereo unspecified) was tested. Which “activity, negative = inhibition” value did it give?
**A.** inactive: 14.6%

**Q.** For `COCCN1C=C2C(=O)C(C)(OC(=O)CCC(=O)OC)C(=O)C(Br)=C2C=C1c1ccc(OC)cc1` (stereo unspecified), which activity, negative = inhibition is on record?
**A.** inactive: -11.4% [at 11.5 µM]

**Q.** How did the “activity, negative = inhibition” value turn out when `COc1ccccc1C(=O)Nc1c(C(=O)Nc2ccccc2F)oc2ccccc12` was run?
**A.** inactive: -0.435%

**Q.** For `CCOc1ccc(C(c2c(O)cc(C)n(Cc3ccco3)c2=O)N2CCCCC2)cc1` (stereo unspecified), which Potency is on record?
**A.** inconclusive: 4.47 µM [inhibitor, full curve]

**Q.** `Cc1ccc2cc(C(c3nnnn3Cc3ccccc3)N3CCN(c4ccccc4)CC3)c(=O)[nH]c2c1` (stereo unspecified) was tested. Which Potency did it give?
**A.** inconclusive: 28.2 µM [inhibitor, single point]

**Q.** For `Cc1c(C(=O)O)oc2c1-c1nn(Cc3ccc(Cl)cc3)cc1CC2`, which Potency is on record?
**A.** inconclusive: 39.8 µM [inhibitor, single point]

**Q.** Which “activity, negative = inhibition” value does the source give for `Cc1sc2nc(COC(=O)c3c(F)cccc3F)[nH]c(=O)c2c1C` here?
**A.** inactive: 2.76%

**Q.** Which Potency does the source give for `Cc1ccc2c(c1)COc1c3ccc(C(=O)NC(C)C)cc3nn1-2` here?
**A.** inconclusive: 0.447 µM [inhibitor, full curve]

**Q.** Which Potency does the source give for `C/C(=N\Nc1ccc([N+](=O)[O-])cc1)c1ccc(C#N)cc1` here?
**A.** inconclusive: 1.58 µM [inhibitor, full curve]

**Q.** How did the Potency turn out when `Cc1cc(-c2ccccc2)n2nc(-c3ccccc3)cc2n1` was run?
**A.** inconclusive: 35.5 µM [inhibitor, single point]

**Q.** `CCc1nn(CCCC(=O)N2CCN(c3cccc(OC)c3)CC2)c(=O)c2cc3occc3n12` was tested. Which Potency did it give?
**A.** inconclusive: 35.5 µM [inhibitor, partial curve, poor fit]

**Q.** For `OC1CCCN(CC(O)c2ccccc2)C1` (stereo unspecified), which “activity, negative = inhibition” value is on record?
**A.** inactive: -10.9%

**Q.** `CCOC(=O)c1c(NC(=S)Nc2ccccc2)sc2c1CCN(C)C2` was tested. Which Potency did it give?
**A.** inconclusive: 31.6 µM [inhibitor, single point]

**Q.** How did the “activity, negative = inhibition” value turn out when `COC(=O)C1CCN(S(=O)(=O)c2ccc(N3CCCCS3(=O)=O)cc2)CC1` was run?
**A.** inactive: 0.0048%

**Q.** With `C#CCOc1ccc(C2C3=C(COC3=O)Nc3cc4c(cc32)OCO4)cc1OC` (stereo unspecified) as the compound, how does the Potency read?
**A.** inconclusive: 22.4 µM [inhibitor, partial curve]

**Q.** For `COc1ccc(S(=O)(=O)N2CCOCC2)cc1NC(=O)CSc1n[nH]c(=O)n1C1CC1`, which Potency is on record?
**A.** inconclusive: 3.98 µM [inhibitor, single point]

**Q.** `CCC(=O)Oc1ccc(C2Nc3ccccc3-c3nnc(SC)nc3O2)cc1` (stereo unspecified) was tested. Which Potency did it give?
**A.** inconclusive: 28.2 µM [inhibitor, single point]

**Q.** How did the Potency turn out when `CCCN1C(=O)/C(=C/c2cc(C)n(C)c2C)SC1=Nc1ccc(OC)cc1` was run?
**A.** inconclusive: 10 µM [inhibitor, partial curve, poor fit]

**Q.** `Cc1ccc(NC(=O)COC(=O)Cn2cnc3ccccc32)cc1S(=O)(=O)N(C)C` was tested. Which “activity, negative = inhibition” value did it give?
**A.** inactive: -1.68%

**Q.** How did the “activity, negative = inhibition” value turn out when `CCOc1ccc(S(=O)(=O)N(C)c2ccc(OCC(=O)Nc3nccs3)cc2)cc1` was run?
**A.** inactive: -11.8%

**Q.** With `Cc1ccc(NC(=O)N2CCC(CN3CCCC3)CC2)c(C)c1` as the compound, how does the “activity, negative = inhibition” value read?
**A.** inactive: 2.66%

**Q.** Which “activity, negative = inhibition” value does the source give for `O=C(CCCn1c(=S)[nH]c2ccccc2c1=O)N1CCCCC1` here?
**A.** inactive: -10.9%

**Q.** For `N#C/C(=C(/O)COC(=O)CCc1ccc(S(=O)(=O)N2CCOCC2)cc1)c1nc2ccccc2[nH]1`, which Potency is on record?
**A.** inconclusive: 10 µM [inhibitor, partial curve]

**Q.** With `CC(=O)Nc1ccc(SCC(=O)Nc2cc(C)on2)cc1` as the compound, how does the “activity, negative = inhibition” value read?
**A.** inactive: 11.4%

**Q.** Which “activity, negative = inhibition” value does the source give for `CCn1c(-c2c[nH]c3ccccc23)n[nH]c1=S` here?
**A.** inactive: -15.3%

**Q.** How did the Potency turn out when `CCc1cccc2c(C(=O)COC(=O)C3=NNC(=O)CC3)c[nH]c12` was run?
**A.** inconclusive: 12.6 µM [inhibitor, partial curve]
